Experimental data reported in article PMC4336329 (PLoS ONE, 2015).
Screen size: about 310,000 compounds; about 14,000 (4.5%) showed an effect of 50% or more. Effects have a minus sign here. The list shows a part of the results.

biological target: human ether-à-go-go-related gene (hERG) potassium channel (human, UniProt Q12809); test: primary screen, population patch clamp on CHO cells stably expressing hERG
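Further: peak tail current of the secondary pulse compared with the same well before compound.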

Sequence of human ether-à-go-go-related gene (hERG) potassium channel (Q12809 whole entry, looked up): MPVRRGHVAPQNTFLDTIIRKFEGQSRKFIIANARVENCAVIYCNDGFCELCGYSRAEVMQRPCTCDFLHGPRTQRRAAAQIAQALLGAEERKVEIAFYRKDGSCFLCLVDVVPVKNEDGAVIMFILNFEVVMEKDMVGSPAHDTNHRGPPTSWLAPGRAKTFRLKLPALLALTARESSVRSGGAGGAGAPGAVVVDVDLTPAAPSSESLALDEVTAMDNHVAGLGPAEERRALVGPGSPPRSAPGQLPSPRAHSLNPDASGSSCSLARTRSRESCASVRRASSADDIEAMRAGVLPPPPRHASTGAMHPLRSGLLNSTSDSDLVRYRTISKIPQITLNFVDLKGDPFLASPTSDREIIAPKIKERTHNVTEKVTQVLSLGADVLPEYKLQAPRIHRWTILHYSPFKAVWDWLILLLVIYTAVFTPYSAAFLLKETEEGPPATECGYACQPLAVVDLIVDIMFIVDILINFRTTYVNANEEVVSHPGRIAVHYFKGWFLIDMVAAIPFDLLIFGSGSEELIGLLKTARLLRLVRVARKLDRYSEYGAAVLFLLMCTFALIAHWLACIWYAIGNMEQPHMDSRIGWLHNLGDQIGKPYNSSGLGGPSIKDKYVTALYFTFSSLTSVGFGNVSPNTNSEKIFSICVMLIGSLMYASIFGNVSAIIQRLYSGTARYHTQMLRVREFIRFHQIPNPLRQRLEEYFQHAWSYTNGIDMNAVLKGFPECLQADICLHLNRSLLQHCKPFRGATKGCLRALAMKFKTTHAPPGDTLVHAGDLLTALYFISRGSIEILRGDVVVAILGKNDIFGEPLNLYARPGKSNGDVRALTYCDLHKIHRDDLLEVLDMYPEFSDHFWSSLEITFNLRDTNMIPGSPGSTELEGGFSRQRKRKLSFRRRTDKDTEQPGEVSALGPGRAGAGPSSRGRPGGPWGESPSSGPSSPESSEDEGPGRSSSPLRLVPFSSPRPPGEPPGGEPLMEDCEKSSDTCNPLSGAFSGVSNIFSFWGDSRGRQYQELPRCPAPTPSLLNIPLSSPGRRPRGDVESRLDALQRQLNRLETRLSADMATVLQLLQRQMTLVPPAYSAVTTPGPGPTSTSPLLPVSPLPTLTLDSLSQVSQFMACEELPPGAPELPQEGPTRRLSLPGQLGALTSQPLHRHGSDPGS

SMILES | hERG current change (%, negative = inhibition) at 10uM [%]
Cc1ccc(C(=O)N2CCN(Cc3ccccc3)CC2)o1 | -14.6
CCOC(=O)CSc1nnc(-c2ccco2)n1-c1ccc(C)cc1 | -61.9
COc1ccc(C2N(C(=O)N3CCOCC3)CCN2S(=O)(=O)c2ccc(C)cc2)cc1 (stereo not shown) | 10.8
Cc1cccc(Oc2cc([N+](=O)[O-])cc3c2C(=O)Nc2ccccc2O3)c1 | -4.03
CC(C)n1nnc(-c2ccc(OCc3ccccc3F)cc2)n1 | 13.9
CC(CC(=O)O)CC(=O)N1CCN(S(=O)(=O)c2cccs2)CC1 (stereo not shown) | -23.9
Cc1ccc2nc3sc(C(=O)NCc4ccco4)c(N)c3cc2c1 | 1.38
CCC(C)NC(=O)COC(=O)c1ccccc1OCC(=O)Nc1ccc(Br)cc1 (stereo not shown) | 6.17
CCOP(=O)(OCC)C(NC(=O)c1ccccc1C)C(Cl)(Cl)Cl (stereo not shown) | 6.98
CSc1ccc(CN2CCCC(CO)(Cc3ccccc3)C2)cc1 (stereo not shown) | -60.7
COc1ccc(C(CC(=O)N2CCCCC2)C(C)C)cc1 (stereo not shown) | 15.8
Cc1ccc(NC(=O)COC(=O)C2CCC(=O)N2)c([N+](=O)[O-])c1 (stereo not shown) | -0.885
O=C(NC1CCCc2ccccc21)C1CCCC1 (stereo not shown) | 21.4
Cc1ccc(-n2nnnc2SCn2nnc3ccccc3c2=O)c(C)c1 | 0.882
CC(C)COP(=O)(c1ccc(N(C)C)cc1)C(O)c1ccc(Br)cc1 (stereo not shown) | 8.63
Cc1nn(-c2ccccc2)c(C)c1/C=N/N1CCN(c2ccccn2)CC1 | 8.89
Cc1c(C(=O)c2ccc(Cl)c(Cl)c2)cnc2cc3c(cc12)OCO3 | 2.02
O=C(COc1cccnc1[N+](=O)[O-])N1CCc2ccccc21 | 9.5
C=CCn1c(SCC(=O)Nc2ccc3c(c2)OCCO3)nnc1-c1ccccn1 | -28.3
CC(=O)N(Cc1ccccc1)c1ccc(C(=O)O)cc1 | 2.19
CC1(C)CC(=O)C2=C(C1)N(c1cccc(O)c1)C1=C(C2)C(=O)CC(C)(C)C1 | -9.18
CC(=O)N1CCc2cc(S(=O)(=O)NC(C(=O)N3CCN(c4ccccc4F)CC3)C(C)C)ccc21 (stereo not shown) | -1.28

SMILES | hERG current change (%, negative = inhibition) at 10uM [%]
Cc1ccc(C(=O)Nc2ccccc2Oc2ccccc2)cc1[N+](=O)[O-] | -9.22
O=C(Cc1ccccc1)NCC(=O)N/N=C/c1ccc([N+](=O)[O-])s1 | 2.04
Cn1c(=O)c(C(=O)CN2CCOCC2)c(N)n(Cc2ccccc2)c1=O | -13.2
CCCSC1=N/C(=C\C=C\c2ccco2)C(=O)S1 | 3.74
O=C1/C(=C\c2cccnc2)Sc2ccccc21 | 12.3
CCOC(=O)CCNc1n[nH]c(=O)[nH]c1=O | 13.2
O=C(NCCc1ccccc1)c1ccccc1C(=O)NCCc1ccccc1 | 11.4
O=P(O)(Oc1ccccc1)OC(c1ccccc1)C(F)(F)C(F)(F)F (stereo not shown) | 27.3
COc1cccc(C(=O)N2CCN(Cc3cn[nH]c3-c3ccc(F)cc3F)CC2)c1 | -10.4
O=C(Nn1cnnc1)c1csc2ccccc12 | 0.366
N/C(=N\OC(=O)c1ccco1)c1cccc([N+](=O)[O-])c1 | 14.9
O=C(Nc1c2c(nn1-c1ccccc1)CS(=O)(=O)C2)C1CCCC1 | -0.437
CCn1cc(CN2CCC(n3nccc3NC(=O)c3cccc(F)c3)CC2)cn1 | -6.71
C=Cn1ccnc1P(=S)(c1ccccc1)c1nccn1C=C | 29.1
CS(=O)(=O)N(CC(=O)N1CCOCC1)Cc1ccccc1 | -9.46
O=c1[nH]c2ccc(S(=O)(=O)Nc3ccc(Cl)cc3)cc2o1 | 22.9
O=C1C2CCCN2C(c2ccncc2)N1c1ccc(Cl)c(Cl)c1 (stereo not shown) | -33.3
NC(=O)CC(NC(=O)Cc1ccc(Br)cc1)c1ccc(N2CCC(Cc3ccccc3)CC2)c([N+](=O)[O-])c1 (stereo not shown) | 6.04
COC(=O)c1c(NC(=O)Cc2cccs2)sc(C(=O)NC2CCCCC2)c1C | 6.98
Cc1ccccc1Cn1nnc(-c2ccc3c(c2)OCO3)n1 | 4.96
O=c1c(-c2ccc(O)cc2O)coc2cc(O)cc(O)c12 | -4.59
Cc1ccc(CN(C)C(=O)c2cccc(S(=O)(=O)N3CCN(Cc4ccccc4)CC3)c2)o1 | -31.5

SMILES | hERG current change (%, negative = inhibition) at 10uM [%]
COC(=O)c1cc(C(=O)OCC(=O)N2c3ccccc3NC(=O)C2(C)C)cc([N+](=O)[O-])c1 | -38.2
O=C(COc1ccc2ccc(=O)oc2c1)NC1CCCC1 | 13.4
O=C(Nc1c(C(=O)Nc2cccc(F)c2)oc2ccccc12)c1ccc2c(c1)OCO2 | -2.96
CCOC(=O)c1sc(NC(=O)CNC(=O)Cn2cnc3sc(C)c(C)c3c2=O)nc1C | 9.53
Cc1nc(CCNC(=O)c2cccs2)cs1 | -4.49
COc1ccc(CNC(=O)COC(=O)/C=C/c2cccc(Br)c2)cc1OC | 30.1
COc1cccc(NC(=O)CSc2nnnn2C2CCCC2)c1 | -10.1
C=C(C)CSc1nncn1/N=C/c1ccc(OC)cc1 | 8.05
O=C(CCNS(=O)(=O)c1ccccc1C(F)(F)F)NCC(c1ccco1)N1CCCCC1 (stereo not shown) | 0.519
Clc1ccc(-c2nnc(-c3cccc4ccccc34)o2)cc1Cl | 14.5
C=CCC1CCCCC12NC(=O)NC2=O (stereo not shown) | 11.9
CCOC(=O)c1nnn(-c2nonc2N)c1-c1ccc(OC)cc1 | -8.87
O=C(O)C1CCCCC1C(=O)NCCCn1ccnc1 (stereo not shown) | 6.28
Cc1cccc(C(=O)N2CCC(N3CCC(C(=O)N4CCOCC4)CC3)CC2)c1 | -9.81
COc1ccc(C(=O)COc2ccc3ccc(=O)oc3c2)cc1 | -3.32
CC(C)CC1NC(=S)N(C2CCCCC2)C1=O (stereo not shown) | 2.9
COc1ccc(CN(C)C2CCCCC2)cc1 | -25.1
COc1ccc(N2C(=O)CC(Sc3n[nH]c(-c4ccccc4)n3)C2=O)cc1 (stereo not shown) | -0.496
O=C(NCCS(=O)(=O)N1CCN(c2ccc(F)cc2)CC1)c1ccc2c(c1)OCO2 | -9.49
O=c1c2ccccc2ncn1CCCSc1ccccc1 | -37.6
CCNCC(=O)N1c2ccccc2CCc2ccc(NC(C)=O)cc21 | 32.8
CCOc1ccc(N(CC(=O)NCCc2ccccc2)C(=O)c2csnn2)cc1 | -48.8

SMILES | hERG current change (%, negative = inhibition) at 10uM [%]
CCOC(=O)c1c(NC(=O)COC(=O)CCOc2ccc(OCC)cc2)sc(C(=O)N(C)C)c1C | -8.87
Cc1cc(=O)oc2cc(OCc3ccc(C(=O)OCC(=O)N(C)C4CCS(=O)(=O)C4)cc3)ccc12 (stereo not shown) | -35.2
Cc1cc(C)c2oc(-c3cccc(NC(=O)c4ccc(F)cc4)c3)nc2c1 | 2.99
Cc1cc(C(=O)N2CCN(c3ccc([N+](=O)[O-])cc3)CC2)c(C)o1 | -73.5
Cc1ccc(-c2c(C(=O)N/N=C/C3CC=CCC3)nnn2-c2nonc2N)cc1 (stereo not shown) | 20.5
COCC(CN1CCN(C2=NS(=O)(=O)c3ccccc32)CC1)OC(=O)c1ccc(OC)cc1 (stereo not shown) | -43.3
O=C(CNC(=O)c1cccs1)N/N=C/c1c[nH]c2ccccc12 | 2.63
O=C(COC(=O)/C=C/c1ccc(S(=O)(=O)N2CCCCCC2)cc1)NCc1ccccc1Cl | 12
Cc1c(NC(=O)COc2ccccc2Cl)c(=O)n(-c2ccccc2)n1C | -4.59
Cc1ccc(-n2nc3ccc(NC(=O)c4cccc([N+](=O)[O-])c4C)cc3n2)cc1 | 11.1
Cc1ccc(NC(=O)N2CCOCC2)c(C)c1 | 18.8
Fc1ccc(CNc2ccc(N3CCN(Cc4ccccc4)CC3)cc2)cc1 | -30.1
CCOC(=O)N1CCC(NC(=O)CS(=O)(=O)Cc2nc(-c3ccccc3C)oc2C)CC1 | -4.7
O=C(O)c1ccc(NS(=O)(=O)c2cc(C(=O)O)ccc2Br)cc1 | 17
O=C(N/N=C/c1ccc(Cl)cc1Cl)c1n[nH]c2c1CCCC2 | 11.2
Nc1c(C(=O)NCCc2ccccc2)c2nc3ccccc3nc2n1CCN1CCOCC1 | -3.49
Nc1c(C(=O)CSc2nc(-c3ccccc3)cs2)c(=O)[nH]c(=O)n1C1CC1 | -7.63
O=C(CCCn1c(=S)[nH]c2ccsc2c1=O)NC1CCCCC1 | 7.91
CC1(c2ccc(Cl)cc2Cl)NC(=O)N(CC(=O)Nc2ccc3[nH]c(=O)[nH]c3c2)C1=O (stereo not shown) | 5.84
Cc1ccc2nc(C)c(C(=O)O)cc2c1 | 31.7
CSCCC(C)N1CCC(Oc2ccc(C(=O)N3CCCC3)cc2)CC1 (stereo not shown) | -31.3
CCOC(=O)c1cc(-c2ccncc2)nc2c1c(C)nn2C | -14.8
